The values that follow come from PMC9911399, “Two distinct binding modes provide the RNA-binding protein RbFox with extraordinary sequence specificity”.

Changes are numbered by the printed parent chain; changes in the protein carry UniProt numbers. This is one part of the list.

Sequences and labels used below:
T1: RBFOX1 RRM (Homo sapiens, UniProt Q9NWB1 109-208)
T1 sequence: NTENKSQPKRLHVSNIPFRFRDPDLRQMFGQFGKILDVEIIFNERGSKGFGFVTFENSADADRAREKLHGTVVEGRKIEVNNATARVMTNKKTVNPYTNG

B1: CUUUCGU (DNA:RNA)
RNA: GGGAGACCGGAAUUCAGAUUGUCCCUUUCGUUUAAAUCCCGUCGUAGCCACCA
DNA 1: CAATCTGAATTCCGGTCTCCC
DNA 2: TGGTGGCTACGACGGGATT
B2: GGUAGUG (DNA:RNA)
RNA: B1 RNA with C25G, U26G, U28A, C29G, G30U, U31G
DNA 1: CAATCTGAATTCCGGTCTCCC
DNA 2: TGGTGGCTACGACGGGATT
B3: CCCUGAG (DNA:RNA)
RNA: B1 RNA with U26C, U27C, C29G, G30A, U31G
DNA 1: CAATCTGAATTCCGGTCTCCC
DNA 2: TGGTGGCTACGACGGGATT
B4: CAGGUCA (DNA:RNA)
RNA: B1 RNA with U26A, U27G, U28G, C29U, G30C, U31A
DNA 1: CAATCTGAATTCCGGTCTCCC
DNA 2: TGGTGGCTACGACGGGATT
B5: UCGAGGC (DNA:RNA)
RNA: B1 RNA with C25U, U26C, U27G, U28A, C29G, U31C
DNA 1: CAATCTGAATTCCGGTCTCCC
DNA 2: TGGTGGCTACGACGGGATT
B6: CUGGCCA (DNA:RNA)
RNA: B1 RNA with U27G, U28G, G30C, U31A
DNA 1: CAATCTGAATTCCGGTCTCCC
DNA 2: TGGTGGCTACGACGGGATT
B7: UACGUCG (DNA:RNA)
RNA: GGGAGACCGGAAUUCAGAUUGUCCUACGUCGUUAAAUCCCGUCGUAGCCACCA
DNA 1: CAATCTGAATTCCGGTCTCCC
DNA 2: TGGTGGCTACGACGGGATT
B8: CCCAUGU (DNA:RNA)
RNA: B1 RNA with U26C, U27C, U28A, C29U
DNA 1: CAATCTGAATTCCGGTCTCCC
DNA 2: TGGTGGCTACGACGGGATT
B9: GGAGGGA (DNA:RNA)
RNA: B1 RNA with C25G, U26G, U27A, U28G, C29G, U31A
DNA 1: CAATCTGAATTCCGGTCTCCC
DNA 2: TGGTGGCTACGACGGGATT
B10: GAAUACG (DNA:RNA)
RNA: B7 RNA with U25G, C27A, G28U, U29A
DNA 1: CAATCTGAATTCCGGTCTCCC
DNA 2: TGGTGGCTACGACGGGATT
B11: GUUGACA (DNA:RNA)
RNA: B1 RNA with C25G, U28G, C29A, G30C, U31A
DNA 1: CAATCTGAATTCCGGTCTCCC
DNA 2: TGGTGGCTACGACGGGATT
B12: AUAUAAC (DNA:RNA)
RNA: B1 RNA with C25A, U27A, C29A, G30A, U31C
DNA 1: CAATCTGAATTCCGGTCTCCC
DNA 2: TGGTGGCTACGACGGGATT
B13: GUGUUAC (DNA:RNA)
RNA: B1 RNA with C25G, U27G, C29U, G30A, U31C
DNA 1: CAATCTGAATTCCGGTCTCCC
DNA 2: TGGTGGCTACGACGGGATT
B14: GGACGGG (DNA:RNA)
RNA: B1 RNA with C25G, U26G, U27A, U28C, C29G, U31G
DNA 1: CAATCTGAATTCCGGTCTCCC
DNA 2: TGGTGGCTACGACGGGATT
B15: UAACGCA (DNA:RNA)
RNA: B7 RNA with C27A, G28C, U29G, G31A
DNA 1: CAATCTGAATTCCGGTCTCCC
DNA 2: TGGTGGCTACGACGGGATT
B16: CGAAAUA (DNA:RNA)
RNA: B1 RNA with U26G, U27A, U28A, C29A, G30U, U31A
DNA 1: CAATCTGAATTCCGGTCTCCC
DNA 2: TGGTGGCTACGACGGGATT
B17: AGUUGUC (DNA:RNA)
RNA: B1 RNA with C25A, U26G, C29G, G30U, U31C
DNA 1: CAATCTGAATTCCGGTCTCCC
DNA 2: TGGTGGCTACGACGGGATT
B18: CAUUCGC (DNA:RNA)
RNA: B1 RNA with U26A, U31C
DNA 1: CAATCTGAATTCCGGTCTCCC
DNA 2: TGGTGGCTACGACGGGATT
B19: CCCAAGG (DNA:RNA)
RNA: B1 RNA with U26C, U27C, U28A, C29A, U31G
DNA 1: CAATCTGAATTCCGGTCTCCC
DNA 2: TGGTGGCTACGACGGGATT
B20: UACCAGU (DNA:RNA)
RNA: B7 RNA with G28C, U29A, C30G, G31U
DNA 1: CAATCTGAATTCCGGTCTCCC
DNA 2: TGGTGGCTACGACGGGATT
B21: AAAGGGU (DNA:RNA)
RNA: B1 RNA with C25A, U26A, U27A, U28G, C29G
DNA 1: CAATCTGAATTCCGGTCTCCC
DNA 2: TGGTGGCTACGACGGGATT
B22: UGGCACG (DNA:RNA)
RNA: B7 RNA with A26G, C27G, G28C, U29A
DNA 1: CAATCTGAATTCCGGTCTCCC
DNA 2: TGGTGGCTACGACGGGATT
B23: GAAUGUU (DNA:RNA)
RNA: B1 RNA with C25G, U26A, U27A, C29G, G30U
DNA 1: CAATCTGAATTCCGGTCTCCC
DNA 2: TGGTGGCTACGACGGGATT
B24: GGUAUCG (DNA:RNA)
RNA: B7 RNA with U25G, A26G, C27U, G28A
DNA 1: CAATCTGAATTCCGGTCTCCC
DNA 2: TGGTGGCTACGACGGGATT
B25: CUUAGAA (DNA:RNA)
RNA: B1 RNA with U28A, C29G, G30A, U31A
DNA 1: CAATCTGAATTCCGGTCTCCC
DNA 2: TGGTGGCTACGACGGGATT
B26: GGCGUGC (DNA:RNA)
RNA: B7 RNA with U25G, A26G, C30G, G31C
DNA 1: CAATCTGAATTCCGGTCTCCC
DNA 2: TGGTGGCTACGACGGGATT
B27: GUUACCC (DNA:RNA)
RNA: B1 RNA with C25G, U28A, G30C, U31C
DNA 1: CAATCTGAATTCCGGTCTCCC
DNA 2: TGGTGGCTACGACGGGATT
B28: UCUUACG (DNA:RNA)
RNA: B7 RNA with A26C, C27U, G28U, U29A
DNA 1: CAATCTGAATTCCGGTCTCCC
DNA 2: TGGTGGCTACGACGGGATT
B29: CGCAGUC (DNA:RNA)
RNA: B1 RNA with U26G, U27C, U28A, C29G, G30U, U31C
DNA 1: CAATCTGAATTCCGGTCTCCC
DNA 2: TGGTGGCTACGACGGGATT
B30: AUAUCAU (DNA:RNA)
RNA: B1 RNA with C25A, U27A, G30A
DNA 1: CAATCTGAATTCCGGTCTCCC
DNA 2: TGGTGGCTACGACGGGATT
B31: GAAGGCC (DNA:RNA)
RNA: B7 RNA with U25G, C27A, U29G, G31C
DNA 1: CAATCTGAATTCCGGTCTCCC
DNA 2: TGGTGGCTACGACGGGATT

The assay addresses T1, RBFOX1 RRM. Description: EMSA; HiTS-Eq, 1 nM pool, 10 min; buffer printed only for the single-RNA assays: 10 mM Tris pH 7.5, 150 mM NaCl, 3.4 mM EDTA, 0.001% NP-40, 30 C. The note with it: tags: His6 N-terminal (pET28a); label: 5' 32P. Summed up: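 Relative association constants, normalised to the cognate motif, were derived by comparing read counts of each RNA species with those of the control reaction. The RNA sequenced was the free fraction, separated by 8% native PAGE after a 10 min equilibration in 50 µL of 1 nM 5′-radiolabelled RNA (7 randomized nucleotides) with increasing concentrations of purified wild-type or mutant RbFox RRM.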
As for B1, the binding signal was 0.012 KA relative to UGCAUGU.

Turning to B2, the binding signal is 0.0137 KA relative to UGCAUGU.

Regarding B3, the binding signal was 0.00564 KA relative to UGCAUGU.

Turning to B4, the binding signal is 0.00946 KA relative to UGCAUGU.

As to B5, the binding signal is 0.0115 KA relative to UGCAUGU.

Turning to B6, the binding signal was 0.0131 KA relative to UGCAUGU.

Take B7: the binding signal is 0.014 KA relative to UGCAUGU.

Regarding B8, the binding signal was 0.00331 KA relative to UGCAUGU.

Consider B9, for which the binding signal was 0.0147 KA relative to UGCAUGU.

As to B10, the binding signal is 0.00661 KA relative to UGCAUGU.

B11: the binding signal was 0.0097 KA relative to UGCAUGU.

On to B12, for which the binding signal was 0.00176 KA relative to UGCAUGU.

For B13, the binding signal is 0.0181 KA relative to UGCAUGU.

On to B14, for which the binding signal is 0.0204 KA relative to UGCAUGU.

As to B15, the binding signal was 0.0094 KA relative to UGCAUGU.

With B16, the binding signal is 0.00179 KA relative to UGCAUGU.

For B17, the binding signal was 0.0173 KA relative to UGCAUGU.

For B18, the binding signal is 0.00716 KA relative to UGCAUGU.

B19: the binding signal is 0.00883 KA relative to UGCAUGU.

Take B20: the binding signal is 0.00668 KA relative to UGCAUGU.

For B21, the binding signal is 0.00943 KA relative to UGCAUGU.

Consider B22, for which the binding signal was 0.0541 KA relative to UGCAUGU.

For B23, the binding signal was 0.0282 KA relative to UGCAUGU.

Regarding B24, the binding signal was 0.00827 KA relative to UGCAUGU.

B25: the binding signal was 0.00737 KA relative to UGCAUGU.

On to B26, for which the binding signal was 0.0292 KA relative to UGCAUGU.

Turning to B27, the binding signal is 0.0047 KA relative to UGCAUGU.

Consider B28, for which the binding signal was 0.0065 KA relative to UGCAUGU.

In the case of B29, the binding signal is 0.01 KA relative to UGCAUGU.

B30: the binding signal was 0.00114 KA relative to UGCAUGU.

Take B31: the binding signal is 0.0133 KA relative to UGCAUGU.
